Source: PMC4336329 (PLoS ONE, 2015)
Hit rate of the full screen: of about 310,000 compounds, about 2,200 (0.71%) showed an effect of 50% or more. The effect is printed as a negative number. The list shows a part of the results.

Target: human ether-à-go-go-related gene (hERG) potassium channel (human, UniProt Q12809)
Test: primary screen, population patch clamp on CHO cells stably expressing hERG

Chain of human ether-à-go-go-related gene (hERG) potassium channel (Q12809 whole entry, looked up): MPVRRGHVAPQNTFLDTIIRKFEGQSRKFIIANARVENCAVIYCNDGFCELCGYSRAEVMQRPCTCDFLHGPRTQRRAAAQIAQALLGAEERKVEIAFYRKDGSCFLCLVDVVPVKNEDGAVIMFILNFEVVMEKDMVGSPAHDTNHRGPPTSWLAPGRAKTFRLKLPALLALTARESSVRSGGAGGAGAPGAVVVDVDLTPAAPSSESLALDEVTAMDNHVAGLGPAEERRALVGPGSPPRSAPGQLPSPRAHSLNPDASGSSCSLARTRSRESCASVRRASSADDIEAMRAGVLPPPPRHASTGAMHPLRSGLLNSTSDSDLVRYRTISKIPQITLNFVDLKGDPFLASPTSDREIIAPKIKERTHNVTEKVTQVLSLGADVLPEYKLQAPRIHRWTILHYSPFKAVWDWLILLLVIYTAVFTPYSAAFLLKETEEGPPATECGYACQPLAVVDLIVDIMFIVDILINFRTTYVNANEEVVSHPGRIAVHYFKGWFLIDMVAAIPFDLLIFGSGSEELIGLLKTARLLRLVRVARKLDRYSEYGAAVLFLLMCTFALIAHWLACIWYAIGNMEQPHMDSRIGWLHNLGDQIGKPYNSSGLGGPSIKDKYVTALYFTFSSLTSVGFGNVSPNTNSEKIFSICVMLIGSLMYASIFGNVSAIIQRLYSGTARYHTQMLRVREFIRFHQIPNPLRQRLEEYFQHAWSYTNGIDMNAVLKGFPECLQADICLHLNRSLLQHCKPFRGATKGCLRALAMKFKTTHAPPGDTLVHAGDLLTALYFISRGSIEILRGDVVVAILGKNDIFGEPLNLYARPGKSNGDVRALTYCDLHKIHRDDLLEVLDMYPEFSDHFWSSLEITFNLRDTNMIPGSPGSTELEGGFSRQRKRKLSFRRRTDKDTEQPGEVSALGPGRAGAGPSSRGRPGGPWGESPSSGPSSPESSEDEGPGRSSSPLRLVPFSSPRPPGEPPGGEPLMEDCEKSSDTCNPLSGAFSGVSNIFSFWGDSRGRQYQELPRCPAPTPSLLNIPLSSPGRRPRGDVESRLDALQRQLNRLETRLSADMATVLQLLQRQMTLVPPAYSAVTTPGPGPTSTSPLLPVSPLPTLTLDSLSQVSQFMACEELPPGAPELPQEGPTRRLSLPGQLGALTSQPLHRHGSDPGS

SMILES | hERG current change (%, negative = inhibition) at 1uM [%]
CC(NC(=S)Nc1ccc(OC(F)F)c(Cl)c1)C(C)(C)C (stereo not shown) | 16.7
CC(=O)Nc1ccc(NC(=O)CSc2nncn2C)cc1 | 11.5
CC(C(=O)N1CCCC1)N1CCN(S(=O)(=O)c2ccc(C(C)(C)C)cc2)CC1 (stereo not shown) | -8.44
Cc1nnc(C)c2c(C)n(Cc3ccc4c(c3)OCO4)c(C)c12 | -35.1
C=CC[C@]12CCc3ccccc3C1N(c1ccc(C(=O)OCC)cc1)C2=O (stereo partly shown) | 10.7
CC(CNC(=O)c1cccs1)c1ccc([N+](=O)[O-])cc1 (stereo not shown) | 5.72
O=C(O)/C=C\C(=O)O | 14.4
COc1ccc(NC(=S)N2CCc3cc(OC)c(OC)cc3C2)cc1 | 12.6
CN(Cc1cccnc1)C(=O)c1cc(COc2ccc3c(c2)CCCC3)on1 | 8.03
Cc1ccc(NC(=O)CSCc2nc3c(nnn3Cc3ccc(F)cc3)c(=O)[nH]2)c(C)c1 | 5.13
CCOc1ccccc1N(CC(=O)Nc1ccc(OC)cc1OC)S(=O)(=O)c1ccccc1 | 22.1
COc1ccc(OCC(O)CNS(=O)(=O)c2cccc(Cl)c2)cc1 (stereo not shown) | 12.1
COc1ccccc1C(C)NC(=O)Cc1ccsc1 (stereo not shown) | 22.8
CC/C(=N\NC(=O)c1ccc2c(c1)OCO2)C12CC3CC(CC(C3)C1)C2 | 13.2
O=C(CN1CCN(Cc2ccccc2)CC1)NCc1ccccc1Cl | -5.7
Nc1cc(-c2ccc(Br)cc2)nn1S(=O)(=O)c1ccccc1 | 11.2
O=C(Nc1ccccc1Cc1ccccc1)c1ccncc1 | 12.4
COc1ccc(C2/C(=C(/O)c3ccc(C)cc3)C(=O)C(=O)N2CC2CCCO2)cc1OC (stereo not shown) | 23.5
CCc1ccc(S(=O)(=O)/N=C2\C=C(Nc3ccc(O)cc3)C(=O)c3ccccc32)cc1 | 13.8
COc1ccc(OC)c(S(=O)(=O)N2CCCC2C(=O)NC(C)c2ccccc2)c1 (stereo not shown) | 11.9

SMILES | hERG current change (%, negative = inhibition) at 1uM [%]
Cc1ccccc1NS(=O)(=O)c1ccc(F)cc1 | 8.41
Cc1cc(C)n(C(=O)C2CCCN2S(=O)(=O)c2ccc(Cl)cc2)n1 (stereo not shown) | 6.72
OCC1(CCc2ccccc2)CCN(Cc2c(F)ccc(F)c2F)CC1 | 7.97
Clc1ccc(C[n+]2cc(-c3ccccc3)n3c2CCCCC3)c(Cl)c1.[Br-] | -24.7
O=C1NC(=O)N(c2ccccc2)C(=O)/C1=C/C=C/c1ccco1 | 1.05
CCCC(=O)Nc1ccc(-c2nc3cc(C)c(C)cc3o2)c(O)c1 | 12.7
CC(C)(C)OC(=O)NCCNC(=O)c1cccs1 | 8.43
O=C(Nc1ccncc1)C1CCN(S(=O)(=O)c2ccc(Cl)cc2)CC1 | 0.0643
COc1ccc(CCNC(=O)C(=O)N/N=C/c2cccs2)cc1OC | 15.7
COc1ccccc1Oc1cc(F)nc(N)n1 | 8.71
O=C(O)CN1C(=O)SC(Nc2ccc(Cl)cc2)C1=O (stereo not shown) | 9.62
O=[N+]([O-])c1cc(C(F)(F)F)ccc1NCCc1c[nH]c2ccc(O)cc12 | 11.1
O=C(O)C1C2CCC(O2)C1C(=O)Nc1cnn(Cc2ccccc2)c1 (stereo not shown) | -17.3
COc1ccc(OCC(=O)Nc2ccc(S(=O)(=O)N3CCCCCC3)cc2)cc1 | 4.27
O=C(NC(NCc1cccnc1)C(Cl)(Cl)Cl)c1cccc2ccccc12 (stereo not shown) | 4.91
Cc1ccc2c(c1)C(=O)CC(O)(C(F)F)O2 (stereo not shown) | 16.9
Cc1cc(N2CCOCC2)nc2ccc(NC(=O)CCC(=O)N3CCCCC3)cc12 | -4.2
COc1ccccc1C(=O)C1CCCN(C(=O)CN2CCCCC2=O)C1 (stereo not shown) | 12.6
CC1=C(C(=O)NCc2ccccc2)C(c2cc(Br)cc(Br)c2OC(C)C)NC(=O)N1 (stereo not shown) | -7.48
CC(=O)Nc1ccc(S(=O)(=O)NCCS(=O)(=O)N2CCN(c3ccccc3)CC2)cc1 | 3.85

SMILES | hERG current change (%, negative = inhibition) at 1uM [%]
CCN(CC)C(=O)Cc1c(O)c2ccccc2[nH]c1=O | 9.05
COc1ccc(-c2cn3c4c(sc3n2)CCCC4)cc1 | -7.4
O=C(Nc1ccc(F)cc1)c1cc(S(=O)(=O)N2CCOCC2)cs1 | 5.73
Cc1cccc(OCC(=O)Nc2cc(NC(=O)COc3cccc(C)c3)cc(C(=O)O)c2)c1 | 17
CN(C)/C=C/C(=O)c1ccc2noc(-c3cccc(F)c3)c2c1 | 7.15
c1ccc(-c2cnnc(SCc3cn4cccnc4n3)n2)cc1 | 5.31
CC1=C(C(=O)OCC2CCCO2)C(c2ccc(O)cc2)NC(=O)N1 (stereo not shown) | -5.18
CCn1c(Cc2ccccc2)nnc1SCC(=O)N1CCCCC1 | 11.7
CCOC(=O)c1c(/N=C/c2cccc([N+](=O)[O-])c2O)sc(C)c1C | 10.6
COc1cc(CN2CC(C)CC(C)C2)cc([N+](=O)[O-])c1O (stereo not shown) | 13.5
CCC(C)C1C(C#N)=C(N)Oc2n[nH]c(-c3ccccc3)c21 (stereo not shown) | 9.06
Cc1cc(Nc2ccc(Cl)cc2)n(-c2cccc(Cl)c2)n1 | -3.54
Cc1ccc(S(=O)(=O)n2cccc2C)cc1 | 15
O=C(NC1CCN(Cc2ccccc2)CC1)C1CCCN(S(=O)(=O)c2cccc3nonc23)C1 (stereo not shown) | -13.5
COc1cc(N2CCOCC2)ncn1 | 5.39
O=S(=O)(c1ccc(Oc2ccccc2)cc1)N1CCOCC1 | 1.61
CCOC(=O)c1ccc(NC(=O)CSc2nnc(-c3cccs3)n2CC)cc1 | 6.82
Cc1ccc(C)c(NC(=O)CCN2C(=O)C3CC=CCC3C2=O)c1 (stereo not shown) | 8.68
